No constants are given. Whether binding was seen depends on the method and setting. Some entries that bind do so weakly or less than the wild type.
Columns and labels:
bISG15-L10A (bovine) = bISG15-L10A (bovine) (UniProt O02741); experiment: ITC; isothermal titration calorimetry of NS1B-NTR and ISG15 proteins; which was titrated and the conditions are not told in the text shown; both purified
[1] = target: bISG15 with the first two linker residues (Gln76, Asn77) converted to alanine (bovine) (UniProt O02741); experiment: as above
mISG15-L10A (murine) = mISG15-L10A (murine) (UniProt Q64339); experiment: as above
[2] = target: mISG15 with the first two linker residues (Gln74, Asn75) converted to alanine (murine) (UniProt Q64339); experiment: as above
bovine ISG15 (bovine) [3] = target: bovine ISG15 (bovine) (UniProt O02741); experiment: SEC; both purified
human ISG15 (human) = human ISG15 (human) (UniProt P05161); experiment: SEC; both purified
murine ISG15 (murine) [4] = target: murine ISG15 (murine) (UniProt Q64339); experiment: SEC; both purified
bovine ISG15 (bovine) [5] = target: bovine ISG15 (bovine) (UniProt O02741); experiment: crystal structure; crystal structures of NS1B-NTR in complex with mISG15, cISG15 or bISG15; both purified
murine ISG15 (murine) [6] = target: murine ISG15 (murine) (UniProt Q64339); experiment: as above

Sequences of proteins named here, by UniProt entry; tags and fusion partners are left off. A change or cut given only in a name is not applied to a line headed by its entry. A line that says so, or that is headed by a name, gives the form on record, which may keep a tag or linker. Residues count along the entry.
UniProt O02741: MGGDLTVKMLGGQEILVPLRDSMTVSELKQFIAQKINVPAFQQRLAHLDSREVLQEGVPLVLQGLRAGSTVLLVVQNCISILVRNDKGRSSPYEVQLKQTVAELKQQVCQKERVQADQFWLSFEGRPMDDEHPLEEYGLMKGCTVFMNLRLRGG
bISG15 with the first two linker residues (Gln76, Asn77) converted to alanine (O02741, form named): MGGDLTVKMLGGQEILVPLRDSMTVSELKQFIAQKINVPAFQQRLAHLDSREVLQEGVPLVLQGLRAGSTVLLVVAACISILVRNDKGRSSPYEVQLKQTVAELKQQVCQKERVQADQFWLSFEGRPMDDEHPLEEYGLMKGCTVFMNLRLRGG
murine ISG15 (Q64339, residues 1-155): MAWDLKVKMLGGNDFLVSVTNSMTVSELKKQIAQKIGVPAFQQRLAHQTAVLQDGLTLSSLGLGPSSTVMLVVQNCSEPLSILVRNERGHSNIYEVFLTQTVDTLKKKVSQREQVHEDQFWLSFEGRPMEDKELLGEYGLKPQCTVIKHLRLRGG
mISG15-L10A (Q64339, form named): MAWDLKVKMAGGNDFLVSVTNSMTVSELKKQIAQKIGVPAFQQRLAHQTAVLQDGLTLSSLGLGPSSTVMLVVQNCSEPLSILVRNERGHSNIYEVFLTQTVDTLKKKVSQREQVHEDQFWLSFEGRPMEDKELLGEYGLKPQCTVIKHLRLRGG
mISG15 with the first two linker residues (Gln74, Asn75) converted to alanine (Q64339, form named): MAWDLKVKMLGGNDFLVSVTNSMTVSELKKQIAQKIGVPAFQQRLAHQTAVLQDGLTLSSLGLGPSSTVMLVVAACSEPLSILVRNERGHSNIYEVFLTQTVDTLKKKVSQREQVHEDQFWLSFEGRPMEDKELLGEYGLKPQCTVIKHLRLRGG
UniProt P05161, residues 1-157: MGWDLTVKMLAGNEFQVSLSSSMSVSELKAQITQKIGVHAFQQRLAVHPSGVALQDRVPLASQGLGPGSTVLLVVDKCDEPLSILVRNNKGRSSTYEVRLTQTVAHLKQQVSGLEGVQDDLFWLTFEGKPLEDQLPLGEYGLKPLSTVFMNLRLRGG

Measured: binding

B1: NS1B-NTR, containing the 103 N-terminal residues of NS1B (influenza B virus NS1 protein) (domain or fragment, UniProt P03502 1-103)
chain: MADNMTTTQIEVGPGATNATINFEAGILECYERFSWQRALDYPGQDRLHRLKRKLESRIKTHNKSEPENKRMSLEERKAIGVKMMKVLLFMDPSAGIEGFEPY
no binding: bISG15-L10A (bovine) | mISG15-L10A (murine)
binds: all other assays above

Reference: publication PMC6711944
